# Experimental data published in the RNAGym collection of RNA variant scans (doi:10.1073/pnas.2313332121).
# Variants at the background level are over-represented here.
# B1: TPR 5TU (parent)
# chain: GGAUCUUCUCGAUCUAACAAAAAAGACAAAUCUGCCACAAAGCUUGAGAGCAUCUUCGGAUGCAGAGGCGGCAGCCUUCGGUGGCGCGAUAGCGCCAACGUUCUCAACUAUGACACGCAAAACGCGUGCUCCGUUGAAUGGAGUUUAUCAUG
# Variants of: B1
# Assay: polymerase ribozyme fitness, log enrichment relative to wild type (log ratio); higher = more active; in vitro selection for triplet polymerase activity
# Outline: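 Fitness is a logarithmic measure of how a genotype enriched relative to the wild type, with replicate averages weighted by inverse variance. The logarithm uses base 2, and enrichment came from Illumina sequencing of input and output libraries. Those libraries were PCR-built, transcribed mutants of each subunit of a heterodimeric triplet polymerase ribozyme, passed through one triplicate in vitro selection round that included frozen incubation at −7 °C, gel excision of extended constructs and streptavidin-bead capture. Genotypes were kept only if they had ≥10 input reads and ≥1 read per output.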
row,Variant,polymerase ribozyme fitness (log ratio)
1,GGAUCUUCUCGAUCUAACAAAAAAGACAAAUCUGCCCCAAAGCGUGAGAGCAUCUUCCCAUGCAGAGGCGGCAGCCUUCGGUGACGCGAUAGCGCCAACGUUUUCAACUAUGACACGCAAAACGCGUGCUCCGUUGAAUGGAGUUAAUCAGG [A37C U44G G58C G59C G84A C103U U146A U151G],≤ -4.2
2,GGAUCUUCUCGAUCUAACAAAAAAGACAAAUCUGCCCCAAAGCUUGAGAGCAUCUACGGAUGCAGAGGCGGCAGCCUUCGGUGGCGCGAUAGCGCCAACGUUCUCAACUAUGACACGCAAAACGCGUGCUCCGUUGAAUGGAGUUUAUCAUG [A37C U56A],-0.806
3,GGAUCUUCUCGAUCUAACAAAAAAGACAAAUCUGCCCCAAAGCUUGAGAGCAUCGUCGGAUGCAGUGGCGGUAGCCUUCGGUGGCGCGAUGGCGCUAACGUUCUCAACUAUGACAAGGAAAACGCGUGCUCCGUUGAAUGGUGAUUAUCAUG [A37C U55G A66U C72U A91G C96U C116A C118G A142U U144A],≤ -4.2
4,GGAUCUUCUCGAUCUAACAAAAAAGACAAAUCUGCCGCAUAGCUUGAGAGCAUCUUCGGAUGCAGAGGCGGCAGCCUUCGGUGGCGCGAUAGCGCCAACGUUCUCAACUAUGACGCGCAAAACGCGUGCUCCGUUGAAUGGUGUUUAUCAUG [A37G A40U A115G A142U],≤ -4.2
5,GGAUCUUCUCGAUCUAACAAAAAAGACAAAUCUGCCCCAAAGCUUGAGAGCAUCUAUGGAUGCAGAGGCGGCAGCCUUCGGUGGCGCGAUAGCACCAACGUUCUCAACUAUGUCACGCAAAACGCGUGCUCCGUUGAAUGGACUUUAUCAUG [A37C U56A C57U G94A A113U G143C],≤ -4.2
6,GGAUCUUCUCGAUCUAACAAAAAAGACAAAUCUGCCCCAAAGCUUGAGAGCAACUUCGGAUGCAGAGGCGGCAGCCUACGGUGGAGCGAUAGCGCCAACGUUCUCAACUAUGACACUCAAAACGCGUGCUCCGUUGAAUGGAGUUUAUCAUG [A37C U53A U78A C85A G117U],≤ -4.2
7,GGAUCUUCUCGAUCUAACAAAAAAGACAAAUCUGCCGCAAAGCUUGGGAGCAUCUUCGGAUGCAGAGGCGGCAGCCUUCGGUGGCGCGAUAGCGCCAACGCUCUCAACUAUGACACGCAAAACGCGUGCUCCGUUGAAUGGAGUUUAUCAUG [A37G A47G U101C],-2.53
8,GGAUCUUCUCGAUCUAACAAAAAAGACAAAUCUGCCCCAAAGCUUGAGAGCAUCAUCGGAUGCAGAGGCGGUAGCCUUCGGUGGCGCCAUAGCGCCAGCGUUGUCAACUAUGACACGCAAAACGCGCGCUCCGAUGAAUGGAGUUUAUCAUG [A37C U55A C72U G88C A98G C103G U127C U134A],≤ -4.2
9,GGAUCUUCUCGAUCUAACAAAAAAGACAAAUCUGCCGCAGAGCUUGAGAGCCUCUUCGGAUGCAGAGGCGGCAGCCUUCGGUGGCGCGAUAGCGCCAACGUUCUCAACUAUGACACGCAAAACGCGUGCUCCGUUGAAUGGAGUUUAUCAUG [A37G A40G A52C],≤ -4.2
10,GGAUCUUCUCGAUCUAACAAAAAAGACAAAUCUGCCCCAAAGCUUGAGAGCAUCUUCGGAUGCAGAGGCGGCAGCCUUCGGUGGCGCGAAAGAGCCAACGUUCUCAACUAUGACACGCAAAACGCGUGCUCCGUUGAAUGGAGUUUAUCAUG [A37C U90A C93A],≤ -4.2
11,GGAUCUUCUCGAUCUAACAAAAAAGACAAAUCUGCCCCAAAGCUUGAGAGCAUCUACGGAUGCAGAGGCGGCAGCCUUCGGUGGAGCGAUAGCGCCAAGGUUCUCAGCUAUGACACGCAAAACACGUGCUCCGUUGAAUGGAGUUUAUCAUG [A37C U56A C85A C99G A107G G124A],≤ -4.2
12,GGAUCUUCUCGAUCUAACAAAAAAGACAAAUCUGCCGCAAUGCUUGAGGGCAUCUUCGGAUGCAGAGGCGGCAGCCUUCGGUGGCGCGAUAGCGCCAACGUUCUCAACUAUGACACGCAAAACGCGUGCUCCGUUGGAUGGAGUUUAGCAUG [A37G A41U A49G A137G U148G],≤ -4.2
13,GGAUCUUCUCGAUCUAACAAAAAAGACAAAUCUGCCCCAAAGCUUGAGAGCAUCUUCGGAAGCAGAGGCGGCAGCCUUCGGUGGGGCGAUAGCGCCUACGUUCUCAACUAUGUCACGCAAAACGCGUGCUCCGUUGAAUGGAGUUUAUCAUG [A37C U61A C85G A97U A113U],≤ -4.2
14,GGAUCUUCUCGAUCUAACAAAAAAGACAAAUCUGCCCCAAAGCUUGAGAGCAUCUGCGGAUGCAGAGUCGGCAGCCUUCGGUGGCGCGAAAGCGUCAACGUUCUAAACUAUGACACUCAAAACGCGUGCUCCGUUGAAUGGAGUUUAUCAUG [A37C U56G G68U U90A C95U C105A G117U],≤ -4.2
15,GGAUCUUCUCGAUCUAACAAAAAAGACAAAUCUGCCCCAAAGCUUGAGAGCAUCUUCGGAUGCAGAGGCGGCAGCCUUCGGGGGCGCGAUAGCGCCAACGUUCUCAACUAUGACACGCAAAACGCGUGCUCCGUUGAAUGGAGUUUAACAUG [A37C U82G U148A],≤ -4.2
16,GGAUCUUCUCGAUCUAACAAAAAAGACAAAUCUGCCCCAAAGCUUGAGAGCAUCUUCGGAUGCAGAGGCGGCAGCCUUCGGUGGCGCGAUAGCGCCAACGUUCUCAACUAUGACACGCAAAACGCGGGCUCCGUUGAAUGGAGUUUAUCAUG [A37C U127G],-3.83
17,GGAUCUUCUCGAUCUAACAAAAAAGACAAAUCUGCCCCAAAGCUUGAGAGCAUCUUCGGAAGCAGAGGCGGCAGCCUUCGUUGGCACGAUAGAGCCAACGUUCUCAACUAUGACACGCAAAACGCGUGCUCCGCUGAAUGGAAUCUAUCAUG [A37C U61A G81U G86A C93A U134C G143A U145C],≤ -4.2
18,GGAUCUUCUCGAUCUAACAAAAAAGACAAAUCUGCCCCAAAGCAUGAGAGCAUCUUCGGAUGCAGAGGCGGCAGCCUUCUAUGGUGCGAUAGCGCCAACAUUCUCAACUAUGACACGCAAAACGCGUCCUCCGUUGAAUGGAGUUUAUCAUG [A37C U44A G80U G81A C85U G100A G128C],≤ -4.2
19,GGAUCUUCUCGAUCUAACAAAAAAGACAAAUCUGCCCCAAAGCUUGAGAGCAUCUCCGGAUGCAGAGCCGGCAGCCUUCGGUGGUGCGAUAGCGCCAAAGUUCUCAACUAUGACACGCAAAACGCGUGCUCCGUUGAAUGGAGUUUAUCUUG [A37C U56C G68C C85U C99A A150U],≤ -4.2
